Numbering of substitutions follows the chain as printed.

This is an account of results in patent publication EP4674438A1 (Taiho Pharmaceutical Co., Ltd., dated 2024).

The chains are these.
T1: human CD138 protein (human, UniProt P18827 23-310)
T1 construct: Endogenous CD138 on human cancer cell lines (AsPC-1, Capan-1, BxPC-3)
T1 sequence: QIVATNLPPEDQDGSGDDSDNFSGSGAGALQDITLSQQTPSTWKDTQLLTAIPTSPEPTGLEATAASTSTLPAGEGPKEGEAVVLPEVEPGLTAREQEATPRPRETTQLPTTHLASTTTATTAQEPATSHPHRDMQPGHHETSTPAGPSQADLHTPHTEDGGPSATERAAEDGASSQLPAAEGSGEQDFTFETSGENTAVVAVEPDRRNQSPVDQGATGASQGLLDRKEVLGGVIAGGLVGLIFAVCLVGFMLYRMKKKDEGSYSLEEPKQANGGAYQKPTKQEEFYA

B1: Antibody 6 (antibody, human IgG1, kappa)
heavy: QVQLVQSGAEVKKPGSSVKVSCKASGYTFSNYWIEWVRQAPGQGLEWIGEILPGTGRTIYNEKFKGRVTFTADESTSTAYMELSSLRSEDTAVYYCARRDYYGNFYYAMDYWGQGTLVTVSSASTKGPSVFPLAPSSKSTSGGTAALGCLVKDYFPEPVTVSWNSGALTSGVHTFPAVLQSSGLYSLSSVVTVPSSSLGTQTYICNVNHKPSNTKVDKKV[human IgG1 Fc with changes not spelt out]
light: DIQMTQSPSSLSASVGDRVTITCSASQGINNYLNWYQQKPGKAPKLLIYYTSTLQSGVPSRFSGSGSGTDYTLTISSLQPEDFATYYCQQYSKLPRTFGGGTKVEIKRTVAAPSVFIFPPSDEQLKSGTASVVCLLNNFYPREAKVQWKVDNALQSGNSQESVTEQDSKDSTYSLSSTLTLSKADYEKHKVYACEVTHQGLSSPVTKSFNRGEC
notes: Humanized, human IgG1 constant region; also called anti-CD138 antibody
B2: Antibody 3 (antibody, human IgG1, kappa)
heavy: QVQLVQSGAEVKKPGSSVKVSCKASGYTFSNYWIEWVRQAPGQGLEWIGEILPGTGRTIYNEKFKGRATFTADISTSTAYMELSSLRSEDTAVYYCARRDYYGNFYYAMDYWGQGTLVTVSSASTKGPSVFPLAPSSKSTSGGTAALGCLVKDYFPEPVTVSWNSGALTSGVHTFPAVLQSSGLYSLSSVVTVPSSSLGTQTYICNVNHKPSNTKVDKKV[human IgG1 Fc with changes not spelt out]
light: B1 light
notes: as for B1
B3: Antibody 4 (antibody, human IgG1, kappa)
heavy: QVQLVQSGAEVKKPGSSVKVSCKASGYTFSNYWIEWVRQAPGQGLEWIGEILPGTGRTIYNEKFKGRVTFTADISTSTAYMELSSLRSEDTAVYYCARRDYYGNFYYAMDYWGQGTLVTVSSASTKGPSVFPLAPSSKSTSGGTAALGCLVKDYFPEPVTVSWNSGALTSGVHTFPAVLQSSGLYSLSSVVTVPSSSLGTQTYICNVNHKPSNTKVDKKV[human IgG1 Fc with changes not spelt out]
light: B1 light
notes: as for B1
B4: Antibody-drug conjugate 9 (ADC9) (antibody, human IgG1, kappa)
heavy: QVQLVQSGAEVKKPGSSVKVSCKASGYTFSNYWIEWVRQAPGQGLEWIGEILPGTGRTIYNEKFKGRVTFTADISTSTAYMELSSLRSEDTAVYYCARRDYYGNFYYAMDYWGQGTLVTVSSASTKGPSVFPLAPSSKSTSGGTAALGCLVKDYFPEPVTVSWNSGALTSGVHTFPAVLQSSGLYSLSSVVTVPSSSLGTQTYICNVNHKPSNTKVDKKV[human IgG1 Fc with changes not spelt out]
light: B1 light
modifications: MC-VC-PAB-MMAE on cysteine sulfhydryls after TCEP reduction of hinge disulfide bonds; positions not given; DAR 7.8
B5: Antibody-drug conjugate 8 (ADC8) (antibody, human IgG1, kappa)
heavy: QVQLVQSGAEVKKPGSSVKVSCKASGYTFSNYWIEWVRQAPGQGLEWIGEILPGTGRTIYNEKFKGRATFTADISTSTAYMELSSLRSEDTAVYYCARRDYYGNFYYAMDYWGQGTLVTVSSASTKGPSVFPLAPSSKSTSGGTAALGCLVKDYFPEPVTVSWNSGALTSGVHTFPAVLQSSGLYSLSSVVTVPSSSLGTQTYICNVNHKPSNTKVDKKV[human IgG1 Fc with changes not spelt out]
light: B1 light
modifications: MC-VC-PAB-MMAE on cysteine sulfhydryls after TCEP reduction of hinge disulfide bonds; positions not given; DAR 7.9
B6: Antibody-drug conjugate 13 (ADC13) (antibody, human IgG1, kappa)
heavy: QVQLVQSGAEVKKPGSSVKVSCKASGYTFSNYWIEWVRQAPGQGLEWIGEILPGTGRTIYNEKFKGRVTFTADISTSTAYMELSSLRSEDTAVYYCARRDYYGNFYYAMDYWGQGTLVTVSS[human IgG1 constant region not spelt out]
light: B1 light
modifications: MC-VC-PAB-MMAE on cysteine sulfhydryls after TCEP reduction of hinge disulfide bonds; positions not given; DAR 7.9
B7: Antibody-drug conjugate 12 (ADC12) (antibody, human IgG1, kappa)
heavy: B6 heavy with V68A
light: B1 light
modifications: MC-VC-PAB-MMAE on cysteine sulfhydryls after TCEP reduction of hinge disulfide bonds; positions not given; DAR 7.9
B8: Antibody-drug conjugate 14 (ADC14) (antibody, human IgG1, kappa)
heavy: B6 heavy with I74E
light: B1 light
modifications: MC-VC-PAB-MMAE on cysteine sulfhydryls after TCEP reduction of hinge disulfide bonds; positions not given; DAR 7.9
B9: Antibody-drug conjugate 11 (ADC11) (antibody, human IgG1, kappa)
heavy: QVQLVQSGAEVKKPGSSVKVSCKASGYTFSNYWIEWVRQAPGQGLEWIGEILPGTGRTIYNEKFKGRVTFTADESTSTAYMELSSLRSEDTAVYYCARRDYYGNFYYAMDYWGQGTLVTVSSASTKGPSVFPLAPSSKSTSGGTAALGCLVKDYFPEPVTVSWNSGALTSGVHTFPAVLQSSGLYSLSSVVTVPSSSLGTQTYICNVNHKPSNTKVDKKV[human IgG1 Fc with changes not spelt out]
light: B1 light
modifications: MC-VC-PAB-MMAE on cysteine sulfhydryls after TCEP reduction of hinge disulfide bonds; positions not given; DAR 7.8
B10: Antibody-drug conjugate 16 (ADC16) (antibody, human IgG1, kappa)
heavy: B6 heavy with V68A
light: B1 light
modifications: MC-VC-PAB-MMAE after TCEP reduction; positions not given; average number of drugs bound to an antibody molecule 3.78
B11: Antibody-drug conjugate 17 (ADC17) (antibody, human IgG1, kappa)
heavy: B6 heavy with V68A
light: B1 light
modifications: MC-VC-PAB-MMAE after TCEP reduction; positions not given; average number of drugs bound to an antibody molecule 7.91

In the first experiment the target is T1, human CD138 protein. Nature of the experiment: flow cytometry on AsPC-1 cells (legend of Figure 1).
In the case of B1, the binding result is “binds”. For B2, the binding result is “binds”. Still for that read-out and setting: with B3 the entry was “binds”.

In a further experiment the target is T1, human CD138 protein. Nature of the experiment: cell-based or functional assay.
Take B4: the “IC50 (ng/ml), cytotoxicity, Capan-1 (CD138-positive), CellTiter-Glo 2.0” value came to 18 ng/mL. On to B5, for which the “IC50 (ng/ml), cytotoxicity, Capan-1 (CD138-positive), CellTiter-Glo 2.0” value was 17 ng/mL. The same measure, in the same setting: next, B6: 40 ng/mL; B7: 21 ng/mL. For B8, the “IC50 (ng/ml), cytotoxicity, Capan-1 (CD138-positive), CellTiter-Glo 2.0” value was determined as 57 ng/mL.

On to B9, for which the “IC50 (ng/ml), cytotoxicity, Capan-1 (CD138-positive), CellTiter-Glo 2.0” value is 31 ng/mL.

The next experiment addresses T1, human CD138 protein. Nature of the experiment: cell-based or functional assay. The source holds these as a separate data set.
B10: the “IC50 (ng/ml), cytotoxicity, BxPC-3 (CD138-positive), CellTiter-Glo 2.0” value is 40 ng/mL. Turning to B11, the “IC50 (ng/ml), cytotoxicity, BxPC-3 (CD138-positive), CellTiter-Glo 2.0” value was found to be 9 ng/mL.
